# Results reported in the supplement of paper PMC8728848.
# The other results are listed elsewhere or left out.
# B1: MpL2 (Macrolepiota procera) (protein)
# chain: MSTQVSSGQTYKITNVKAGTVIDLSGEDNKSIIGYPYHSGKNQQWTFNWTGKAWTLRSASSGSYLGIEGTPADGTRLVAVNDPFEWHIWRDEANENAFRIFVPFTNYNLRLSGYGDTTPGTPVQLWWTWEGLHQTWTIDRP
# Assays:
# Experiment in all cases: glycan array binding signal (z-score within array); higher = stronger binding
# Settings in all cases: glycan notation: IUPAC condensed, linker removed; mutation: D109R
# Neu5Ac(a2-3)Gal = molecular target: Neu5Ac(a2-3)Gal
# Method in brief: (§1)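 The binding signal is a Z-score computed within each array and averaged over linkers. Arrays of the same protein sequence at different concentrations or buffers were also averaged together. Data originate from 3228 arrays in the Consortium for Functional Glycomics database, kept only where the protein sequence was available.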
# [1] = molecular target: Neu5Ac(a2-3)Gal(b1-3)GalNAc
# Method in brief: as §1
# [2] = molecular target: Neu5Ac(a2-3)Gal(b1-3)GalNAc(b1-3)Gal(a1-4)Gal(b1-4)Glc
# Method in brief: as §1
# [3] = molecular target: Neu5Ac(a2-3)Gal(b1-3)GalNAc(b1-4)Gal(b1-4)Glc
# Method in brief: as §1
# [4] = molecular target: Neu5Ac(a2-3)Gal(b1-3)GalNAc(b1-4)[Neu5Ac(a2-3)]Gal(b1-4)Glc
# Method in brief: as §1
# [5] = molecular target: Neu5Ac(a2-3)Gal(b1-3)GalNAc(b1-4)[Neu5Ac(a2-8)Neu5Ac(a2-3)]Gal(b1-4)Glc
# Method in brief: as §1
# [6] = molecular target: Neu5Ac(a2-3)Gal(b1-3)GalNAc6S
# Method in brief: as §1
# [7] = molecular target: Neu5Ac(a2-3)Gal(b1-3)GlcNAc
# Method in brief: as §1
# [8] = molecular target: Neu5Ac(a2-3)Gal(b1-3)GlcNAc(b1-2)Man
# Method in brief: as §1
# [9] = molecular target: Neu5Ac(a2-3)Gal(b1-3)GlcNAc(b1-2)Man(a1-3)[GlcNAc(b1-4)][Neu5Ac(a2-3)Gal(b1-3)GlcNAc(b1-2)Man(a1-6)]Man(b1-4)GlcNAc(b1-4)GlcNAc
# Method in brief: as §1
# [10] = molecular target: Neu5Ac(a2-3)Gal(b1-3)GlcNAc(b1-2)Man(a1-3)[Neu5Ac(a2-3)Gal(b1-3)GlcNAc(b1-2)Man(a1-6)]Man(b1-4)GlcNAc(b1-4)GlcNAc
# Method in brief: as §1
# [11] = molecular target: Neu5Ac(a2-3)Gal(b1-3)GlcNAc(b1-2)[Neu5Ac(a2-3)Gal(b1-3)GlcNAc(b1-4)]Man(a1-6)[Neu5Ac(a2-3)Gal(b1-3)GlcNAc(b1-2)Man(a1-3)]Man(b1-4)GlcNAc(b1-4)GlcNAc
# Method in brief: as §1
# [12] = molecular target: Neu5Ac(a2-3)Gal(b1-3)GlcNAc(b1-3)Gal(b1-3)GlcNAc
# Method in brief: as §1
# [13] = molecular target: Neu5Ac(a2-3)Gal(b1-3)GlcNAc(b1-3)Gal(b1-4)GlcNAc
# Method in brief: as §1
# [14] = molecular target: Neu5Ac(a2-3)Gal(b1-3)GlcNAc(b1-3)GalNAc
# Method in brief: as §1
# [15] = molecular target: Neu5Ac(a2-3)Gal(b1-3)GlcNAc(b1-6)GalNAc
# Method in brief: as §1
# [16] = molecular target: Neu5Ac(a2-3)Gal(b1-3)GlcNAc6S
# Method in brief: as §1
# [17] = molecular target: Neu5Ac(a2-3)Gal(b1-3)[Fuc(a1-4)]GlcNAc
# Method in brief: as §1
# [18] = molecular target: Neu5Ac(a2-3)Gal(b1-3)[Fuc(a1-4)]GlcNAc(b1-3)Gal(b1-3)[Fuc(a1-4)]GlcNAc
# Method in brief: as §1
# [19] = molecular target: Neu5Ac(a2-3)Gal(b1-3)[Fuc(a1-4)]GlcNAc(b1-3)Gal(b1-4)[Fuc(a1-3)]GlcNAc
# Method in brief: as §1
# [20] = molecular target: Neu5Ac(a2-3)Gal(b1-3)[GlcNAc(b1-6)]GalNAc
# Method in brief: as §1
# [21] = molecular target: Neu5Ac(a2-3)Gal(b1-3)[Neu5Ac(a2-6)]GalNAc
# Method in brief: as §1
# [22] = molecular target: Neu5Ac(a2-3)Gal(b1-3)[Neu5Ac(a2-6)]GlcNAc(b1-3)[Fuc(a1-3)[Gal(b1-4)]GlcNAc(b1-6)]Gal(b1-4)Glc
# Method in brief: as §1
# [23] = molecular target: Neu5Ac(a2-3)Gal(b1-3)]Neu5Ac(a2-3)Gal(b1-4)]GlcNAc
# Method in brief: as §1
# Neu5Ac(a2-3)Gal(b1-4)Glc = molecular target: Neu5Ac(a2-3)Gal(b1-4)Glc
# Method in brief: as §1
# [24] = molecular target: Neu5Ac(a2-3)Gal(b1-4)GlcNAc
# Method in brief: as §1
# [25] = molecular target: Neu5Ac(a2-3)Gal(b1-4)GlcNAc(b1-2)Man
# Method in brief: as §1
# [26] = molecular target: Neu5Ac(a2-3)Gal(b1-4)GlcNAc(b1-2)Man(a1-3)[GlcNAc(b1-4)][Neu5Ac(a2-3)Gal(b1-4)GlcNAc(b1-2)Man(a1-6)]Man(b1-4)GlcNAc(b1-4)GlcNAc
# Method in brief: as §1
# [27] = molecular target: Neu5Ac(a2-3)Gal(b1-4)GlcNAc(b1-2)Man(a1-3)[Neu5Ac(a2-3)Gal(b1-4)GlcNAc(b1-2)Man(a1-6)]Man(b1-4)GlcNAc(b1-4)GlcNAc
# Method in brief: as §1
# [28] = molecular target: Neu5Ac(a2-3)Gal(b1-4)GlcNAc(b1-2)Man(a1-3)[Neu5Ac(a2-3)Gal(b1-4)GlcNAc(b1-2)Man(a1-6)]Man(b1-4)GlcNAc(b1-4)[Fuc(a1-6)]GlcNAc
# Method in brief: as §1
# [29] = molecular target: Neu5Ac(a2-3)Gal(b1-4)GlcNAc(b1-2)Man(a1-3)[Neu5Ac(a2-6)Gal(b1-4)GlcNAc(b1-2)Man(a1-6)]Man(b1-4)GlcNAc(b1-4)GlcNAc
# Method in brief: as §1
# [30] = molecular target: Neu5Ac(a2-3)Gal(b1-4)GlcNAc(b1-2)[Neu5Ac(a2-3)Gal(b1-4)GlcNAc(b1-4)]Man(a1-3)[GlcNAc(b1-4)][Neu5Ac(a2-3)Gal(b1-4)GlcNAc(b1-2)[Neu5Ac(a2-3)Gal(b1-4)GlcNAc(b1-6)]Man(a1-6)]Man(b1-4)GlcNAc(b1-4)GlcNAc
# Method in brief: as §1
# [31] = molecular target: Neu5Ac(a2-3)Gal(b1-4)GlcNAc(b1-2)[Neu5Ac(a2-3)Gal(b1-4)GlcNAc(b1-4)]Man(a1-3)[GlcNAc(b1-4)][Neu5Ac(a2-3)Gal(b1-4)GlcNAc(b1-4)Man(a1-6)]Man(b1-4)GlcNAc(b1-4)GlcNAc
# Method in brief: as §1
# [32] = molecular target: Neu5Ac(a2-3)Gal(b1-4)GlcNAc(b1-2)[Neu5Ac(a2-3)Gal(b1-4)GlcNAc(b1-6)]Man(a1-6)[Neu5Ac(a2-3)Gal(b1-4)GlcNAc(b1-2)Man(a1-3)][GlcNAc(b1-4)]Man(b1-4)GlcNAc(b1-4)GlcNAc
# Method in brief: as §1
# [33] = molecular target: Neu5Ac(a2-3)Gal(b1-4)GlcNAc(b1-3)Gal
# Method in brief: as §1
# [34] = molecular target: Neu5Ac(a2-3)Gal(b1-4)GlcNAc(b1-3)Gal(b1-3)GlcNAc
# Method in brief: as §1
# [35] = molecular target: Neu5Ac(a2-3)Gal(b1-4)GlcNAc(b1-3)Gal(b1-4)GlcNAc
# Method in brief: as §1
# [36] = molecular target: Neu5Ac(a2-3)Gal(b1-4)GlcNAc(b1-3)Gal(b1-4)GlcNAc(b1-2)Man(a1-3)[Neu5Ac(a2-3)Gal(b1-4)GlcNAc(b1-3)Gal(b1-4)GlcNAc(b1-2)Man(a1-6)]Man(b1-4)GlcNAc(b1-4)GlcNAc
# Method in brief: as §1
# [37] = molecular target: Neu5Ac(a2-3)Gal(b1-4)GlcNAc(b1-3)Gal(b1-4)GlcNAc(b1-3)Gal(b1-4)GlcNAc
# Method in brief: as §1
# [38] = molecular target: Neu5Ac(a2-3)Gal(b1-4)GlcNAc(b1-3)Gal(b1-4)GlcNAc(b1-3)Gal(b1-4)GlcNAc(b1-2)Man(a1-3)[Neu5Ac(a2-3)Gal(b1-4)GlcNAc(b1-3)Gal(b1-4)GlcNAc(b1-3)Gal(b1-4)GlcNAc(b1-2)Man(a1-6)]GalNAc
# Method in brief: as §1
# [39] = molecular target: Neu5Ac(a2-3)Gal(b1-4)GlcNAc(b1-3)Gal(b1-4)GlcNAc(b1-3)GalNAc
# Method in brief: as §1
# [40] = molecular target: Neu5Ac(a2-3)Gal(b1-4)GlcNAc(b1-3)Gal(b1-4)GlcNAc(b1-3)[Neu5Ac(a2-3)Gal(b1-4)GlcNAc(b1-3)Gal(b1-4)GlcNAc(b1-6)]GalNAc
# Method in brief: as §1
# [41] = molecular target: Neu5Ac(a2-3)Gal(b1-4)GlcNAc(b1-3)Gal(b1-4)GlcNAc(b1-6)[Gal(b1-3)]GalNAc
# Method in brief: as §1
# [42] = molecular target: Neu5Ac(a2-3)Gal(b1-4)GlcNAc(b1-3)Gal(b1-4)[Fuc(a1-3)]GlcNAc
# Method in brief: as §1
# [43] = molecular target: Neu5Ac(a2-3)Gal(b1-4)GlcNAc(b1-3)GalNAc
# Method in brief: as §1
binder,measurement,setting,value
B1,glycan array binding signal (z-score),Neu5Ac(a2-3)Gal,-0.278
same,glycan array binding signal (z-score),[1],-0.251
same,glycan array binding signal (z-score),[2],-0.241
same,glycan array binding signal (z-score),[3],-0.282
same,glycan array binding signal (z-score),[4],-0.262
same,glycan array binding signal (z-score),[5],-0.266
same,glycan array binding signal (z-score),[6],-0.263
same,glycan array binding signal (z-score),[7],-0.244
same,glycan array binding signal (z-score),[8],-0.263
same,glycan array binding signal (z-score),[9],-0.232
same,glycan array binding signal (z-score),[10],0.006
same,glycan array binding signal (z-score),[11],-0.253
same,glycan array binding signal (z-score),[12],-0.277
same,glycan array binding signal (z-score),[13],-0.264
same,glycan array binding signal (z-score),[14],-0.259
same,glycan array binding signal (z-score),[15],-0.243
same,glycan array binding signal (z-score),[16],-0.217
same,glycan array binding signal (z-score),[17],-0.249
same,glycan array binding signal (z-score),[18],-0.271
same,glycan array binding signal (z-score),[19],-0.251
same,glycan array binding signal (z-score),[20],-0.286
same,glycan array binding signal (z-score),[21],-0.276
same,glycan array binding signal (z-score),[22],-0.229
same,glycan array binding signal (z-score),[23],-0.263
same,glycan array binding signal (z-score),Neu5Ac(a2-3)Gal(b1-4)Glc,-0.242
same,glycan array binding signal (z-score),[24],-0.348
same,glycan array binding signal (z-score),[25],-0.23
same,glycan array binding signal (z-score),[26],-0.261
same,glycan array binding signal (z-score),[27],-0.278
same,glycan array binding signal (z-score),[28],-0.215
same,glycan array binding signal (z-score),[29],-0.266
same,glycan array binding signal (z-score),[30],-0.282
same,glycan array binding signal (z-score),[31],-0.282
same,glycan array binding signal (z-score),[32],-0.302
same,glycan array binding signal (z-score),[33],-0.29
same,glycan array binding signal (z-score),[34],-0.262
same,glycan array binding signal (z-score),[35],-0.251
same,glycan array binding signal (z-score),[36],-0.117
same,glycan array binding signal (z-score),[37],-0.31
same,glycan array binding signal (z-score),[38],-0.078
same,glycan array binding signal (z-score),[39],-0.242
same,glycan array binding signal (z-score),[40],-0.178
same,glycan array binding signal (z-score),[41],-0.24
same,glycan array binding signal (z-score),[42],-0.257
same,glycan array binding signal (z-score),[43],-0.273
